# Reference: PubChem BioAssay AID1347417 (National Center for Advancing Translational Sciences (NCATS), 2020)
# In all, about 120,000 compounds went through this assay and about 5,300 (4.4%) were called active. Inconclusive results, whose numbers are uncertain, are shown with a selection of clear calls. The call rests on the fitted dose curve; in most records, active means well fitted inhibition curve with a large enough effect; inconclusive means small, poorly fitted or top-dose-only effect; inactive means no such curve, though single readings can be large or run the other way. Where the call is inconclusive, the potency comes from a doubtful curve fit.
# Assay: qHTS Primary assay for Inhibitors of Plasmodium falciparum Dd2 growth in vitro; further: nearly all actives have a fitted effect of over 65% in size
# Conditions: P. falciparum Dd2 growth, SYBR Green, 72 h; series mostly up to 28.9 µM
# Outline: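 Readout: SYBR Green fluorescence, 485 nm excitation, 535 nm emission, after ~16 h lysis at 37C. Before that, Dd2-infected red cells (2.5% hematocrit) grew 72 h with compound, 29 uM top final concentration.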
# Potency means the concentration at half of the fitted maximal effect; tags describe the fitted curve by direction and shape.
row,Compound,Potency
1,O=C(c1ccc2cc[nH]c2c1)N1CCC(N2C(=O)C(OCC3CC3)C23CCOCC3)CC1 (configuration not stated),"inconclusive: 8.91 µM [inhibitor, partial curve]"
2,O=C(c1ccsc1)N1CC(c2nnc(-c3ccncc3)o2)C2(CCOCC2)C1 (configuration not stated),inactive
3,COc1ccc(-n2nc(C3CCCN(CC4CCCCC4)C3)[nH]c2=O)cc1 (configuration not stated),"inconclusive: 7.94 µM [inhibitor, partial curve, poor fit]"
4,O=C1NCCCCCCN(Cc2ccc(C(F)(F)F)cc2)[C@H]2CCC[C@@H]12,"inconclusive: 7.94 µM [inhibitor, partial curve, poor fit]"
5,CCCCNC(=O)c1ccc2c(c1)N(Cc1ccc(F)cc1)C(=O)c1ccccc1S2=O (configuration not stated),"inconclusive: 7.08 µM [inhibitor, single point]"
6,COc1ccc(-c2cc([C@H]3CN4CC[C@H]3C[C@@H]4CNC(=O)C3CCCCC3)n(C)n2)cc1OC,"inconclusive: 20 µM [inhibitor, single point]"
7,Cn1nnnc1C1CCCN(C(=O)CCCc2ccccc2)C1 (configuration not stated),inactive
8,CCC(=O)N1CCN(c2nc3c(s2)CC(C(=O)NCc2ccc(C)o2)CC3)CC1 (configuration not stated),"inconclusive: 0.251 µM [inhibitor, full curve, poor fit]"
9,Cc1cccc(OCC(=O)Nc2cccc(OCc3cc(=O)n4cccc(C)c4n3)c2)c1,"inconclusive: 3.55 µM [inhibitor, full curve, poor fit]"
10,COCCN1CCCCCC(O)c2cc(C(=O)NCCc3cccnc3)ccc21 (configuration not stated),"inconclusive: 20 µM [inhibitor, single point]"
11,CC(=O)Nc1nc2n(n1)C(c1ccc(F)cc1)C=C(c1ccc(Cl)cc1)N2 (configuration not stated),active: 10 µM
12,COc1ccc(-c2cc(-c3ccc4cn[nH]c4c3)cn3cncc23)cc1,"inconclusive: 2.82 µM [inhibitor, single point]"
13,COc1ccc(-c2cc(N3CCCN(C(=O)c4ccccn4)CC3)n[nH]2)cc1,inactive
14,COc1ccccc1CN(C)C(=O)c1coc(COc2cccc(F)c2F)n1,"inconclusive: 17.8 µM [inhibitor, single point]"
15,COCC(=O)NC[C@@H]1C=C(C)[C@H](CC(=O)NC2CCCC2)C[C@H]1C(C)C,inactive
16,COc1ccc(-c2noc([C@@H]3C[C@@H](O)CN3C3CCN(C)CC3)n2)cc1,inactive
17,O=C1COc2ccc(-c3ccccc3)nc2CN1Cc1ccccc1F,"inconclusive: 5.01 µM [inhibitor, partial curve, poor fit]"
18,CC(C)NC(=O)c1nc(-c2ccc(Cl)cc2)c2ccccn12,inactive
19,CCCC(O)c1nc2ccccc2n1CCCOc1ccc(Cl)cc1 (configuration not stated),active: 5.01 µM
20,CC(C)C(=O)N1Cc2ccccc2CC2(CCCCN2C)C1 (configuration not stated),"inconclusive: 25.1 µM [inhibitor, partial curve, poor fit]"
21,CCc1cccc(NC(=O)C2CCCN(c3ncnc4onc(-c5ccc(F)cc5)c34)C2)c1 (configuration not stated),"inconclusive: 11.2 µM [inhibitor, partial curve]"

row,Compound,Potency
1,C[C@@H]1C(=O)O[C@H]2[C@H]1CC[C@@]1(C)Cc3sc(Nc4ccc(C(=O)O)cc4)nc3[C@@H](C)[C@H]21,inactive
2,Cc1ccc(NC(=O)c2nc(S(C)(=O)=O)ncc2N(Cc2ccc(C(C)(C)C)cc2)Cc2ccco2)cc1C,active: 7.08 µM
3,COc1ccc(-c2cc([C@H]3CN4CC[C@H]3C[C@@H]4CN)nc(C)n2)cc1OC,active: 11.2 µM
4,Cc1nccn1-c1ccc(CNC(=O)C(c2ccc(F)cc2)N(C)C)cc1 (configuration not stated),"inconclusive: 7.08 µM [inhibitor, partial curve, poor fit]"
5,CCCCN1CC(c2nc3ccccc3n2CCCCOc2cc(C)ccc2C)CC1=O (configuration not stated),"inconclusive: 12.6 µM [inhibitor, single point]"
6,COc1ccc(-c2cc3c(=O)n(CCNC(=O)c4cccc(OC)c4OC)ccn3n2)cc1,"inconclusive: 1.12 µM [inhibitor, partial curve, poor fit]"
7,CCc1ccc(N2CC(c3ncon3)CC2=O)cc1 (configuration not stated),inactive
8,CCC(CC)C(=O)Nc1ccc([C@@H](O)[C@H]2COCC(=O)N2Cc2ccccc2OC)cc1,"inconclusive: 17.8 µM [inhibitor, single point]"
9,Cc1ccc(-c2noc([C@@H]3C[C@@H](O)CN3CC3CC3)n2)cc1F,"inconclusive: 20 µM [inhibitor, partial curve, poor fit]"
10,c1ccc2c(c1)CCN2C1CN(CC2CC2)C1,"inconclusive: 28.2 µM [inhibitor, single point]"
11,COc1cccc(CNC(=O)c2cccc3c2CCN3C(=O)c2ccc(F)cc2)c1,inactive
12,O=C(O)c1cccc(CN2CC(COc3ccccc3)C3(C2)CN(c2ccccc2)C3)c1 (configuration not stated),"inconclusive: 22.4 µM [inhibitor, single point]"
13,Cc1ccc(NC(=O)c2c(C)cc(C)nc2SCC(=O)Nc2ccc(Br)cc2)cc1,"inconclusive: 17.8 µM [inhibitor, single point]"
14,O=C(NCCc1ccccc1)N(C1CCOCC1)C1CCN(CC2CCCCC2)CC1,"inconclusive: 3.16 µM [inhibitor, full curve, poor fit]"
15,COc1ccc(N(Cc2cc3ccccc3[nH]c2=O)C(=O)c2cccc(Cl)c2)cc1,"inconclusive: 17.8 µM [inhibitor, single point]"
16,Cc1ccc(C(=O)N2CCCN(c3cc(-c4ccc(Cl)cc4)[nH]n3)CC2)cn1,active: 6.31 µM
17,Cc1ccc(CN2C(=O)NC3(CCCN(C(=O)c4ccc5c(c4)OCO5)C3)C2=O)cc1 (configuration not stated),inactive
18,CO[C@H]1[C@H](NC(=O)c2c(F)ccc(C)c2F)c2ccccc2C12CCNCC2,"inconclusive: 10 µM [inhibitor, single point]"
19,O=C(Cc1ccccc1)N1CCC(Oc2cnc3c(ccn3-c3cncnc3)c2)CC1,active: 12.6 µM
20,Cc1ccc(C(=O)N2CCC3(CC2)N=C(c2ccc(C)cc2)NO3)cc1,"inconclusive: 10 µM [inhibitor, single point]"
21,COc1ccc(CN(C(=O)c2ccco2)c2ccc(CC(=O)NCCc3ccccc3)cc2)cc1,active: 3.98 µM
